Among all 110,000 compounds or so, about 230 (0.21%) showed an effect of 50% or more. The list shows a part of the results.
Biological target: DPAP1 (Plasmodium falciparum, UniProt Q8IIJ9)
Test: primary screen, percent inhibition; read by cleavage of a fluorogenic dipeptide substrate; higher = more effect of the substance
Design: species or system P. falciparum D10 trophozoite lysates; single well
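Note: 30 min substrate incubation versus DMSO and 10 µM JCP410 controls.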

Chain of DPAP1 (Q8IIJ9 whole entry, looked up): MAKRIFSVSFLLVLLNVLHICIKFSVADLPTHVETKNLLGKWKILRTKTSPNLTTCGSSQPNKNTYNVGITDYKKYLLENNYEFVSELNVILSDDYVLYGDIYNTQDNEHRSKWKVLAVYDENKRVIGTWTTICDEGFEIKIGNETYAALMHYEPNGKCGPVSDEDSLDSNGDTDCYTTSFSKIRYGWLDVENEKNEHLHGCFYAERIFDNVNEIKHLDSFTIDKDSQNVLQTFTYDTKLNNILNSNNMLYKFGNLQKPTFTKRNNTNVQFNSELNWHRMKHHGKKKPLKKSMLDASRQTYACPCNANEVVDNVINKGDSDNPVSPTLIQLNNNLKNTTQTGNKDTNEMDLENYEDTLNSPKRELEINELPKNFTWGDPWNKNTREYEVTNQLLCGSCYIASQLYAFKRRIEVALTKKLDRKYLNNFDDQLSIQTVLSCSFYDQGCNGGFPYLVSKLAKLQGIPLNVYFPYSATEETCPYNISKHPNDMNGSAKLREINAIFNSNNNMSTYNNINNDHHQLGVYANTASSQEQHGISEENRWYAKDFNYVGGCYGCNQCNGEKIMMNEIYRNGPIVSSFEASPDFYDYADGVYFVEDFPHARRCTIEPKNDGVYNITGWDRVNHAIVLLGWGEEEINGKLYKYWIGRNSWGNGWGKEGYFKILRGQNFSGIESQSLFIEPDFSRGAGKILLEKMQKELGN

Row | Compound | % Inhibition @ 10 uM [%]
1 | Cc1ccc2nc(Oc3ccccc3)ccc2c1 | 1.7
2 | O=C(Nc1ccc2c(c1)OCO2)c1ccc2c(c1)OCO2 | -1.63
3 | COc1ccccc1N1CCN(C2CC(=O)N(c3ccc(F)cc3)C2=O)CC1 (stereo not shown) | 1.08
4 | N=C1/C(=C\c2cccn2-c2nnc(-c3ccccc3)s2)C(=O)N=C2SC=NN12 | 0.208
5 | COCCNC(=O)c1ccc(-c2nc(CS(=O)(=O)c3ccc(C)cc3)c(C)o2)cc1 | 0.625
6 | C=CCn1c(SC/C=C(/C)Cl)nc2c1c(=O)[nH]c(=O)n2C | 1.8
7 | CCC(C)c1ccc(NC(=O)c2cnn3c(C(F)F)cc(C)nc23)cc1 (stereo not shown) | 0.161
8 | CC1C(=O)CC(c2ccco2)NC1c1ccco1 (stereo not shown) | 3.82
9 | COC(=O)c1cc2sc(Cl)cc2n1CC(=O)NCCC(C)C | -10.2
10 | CCOc1ccccc1NC(=O)C1=C(C)NC(=O)NC1c1cccc(OC)c1 (stereo not shown) | -2.6
11 | O=C(Nc1noc2ccccc12)C(=O)c1ccccc1 | 0.569
12 | CCCN(CCC)CCCNS(=O)(=O)c1ccc(OCC)c2ncccc12 | 0.231
13 | O=C(NCCN1CCOCC1)c1ccc(-n2cnc3cccnc32)cc1 | -0.241
14 | O=c1cccc2n1C[C@H]1C[C@@H]2CN(Cc2c(O)ccc3ccccc23)C1 | 3.15
15 | COc1ccc(OC)c(CCNCc2c(C(=O)O)n(Cc3ccc(C)cc3)c3cc(OC)ccc23)c1 | 6.66
16 | COc1cccc(C(=O)Nc2ccc(CC#N)cc2)c1 | 6.35
17 | Nc1cccc2c1c1c(n2S(=O)(=O)c2ccccc2)CCC1 | -2.99
18 | O=C(Nc1cc(Cl)cc(Cl)c1)c1ccccc1Br | 2.46
19 | CCCS(=O)(=O)c1c(S(=O)(=O)CCC)c2c(N)cccn2c1C(=O)c1ccc(C)cc1C | 4.54
20 | COc1ccc(-c2cn3nc(N4CCCC(C(=O)NCc5ccc6c(c5)OCO6)C4)sc3n2)cc1 (stereo not shown) | 5.14

Row | Compound | % Inhibition @ 10 uM [%]
21 | Cc1ccc(C)c(S(=O)(=O)NCc2ccc(C(=O)N3CCCCCC3)cc2)c1 | -7.61
22 | O=C(c1ccco1)N(Cc1cccc([N+](=O)[O-])c1)c1ccccc1 | -2.03
23 | O=C(COc1ccc(Cl)cc1Cl)N1CCCC1 | -1.77
24 | O=C(Nc1nc2c(Cl)c(Cl)ccc2s1)c1cccnc1 | 2.01
25 | COc1cccc(C2=NS(=O)(=O)N(C)C(C(=O)NCCc3ccccc3)=C2)c1 | 0.655
26 | CCOc1ccc(NC2=NC(=O)C(CC(=O)Nc3ccc(C)c(C)c3)S2)cc1 (stereo not shown) | -0.941
27 | CN1CCC(N(C)Cc2cccc3ccccc23)CC1 | 3
28 | Cc1cc2nc(O)c(O)nc2cc1S(=O)(=O)N1CCc2ccccc2C1 | 2.42
29 | CCOC(=O)c1sc(NC(=O)C(CC)Sc2nc3ccccc3s2)nc1C (stereo not shown) | -6.95
30 | Cc1c(C(=O)NCc2ccc(F)cc2)oc2ccc3c(c12)C(=O)CC1(CCCC1)O3 | -1.08
31 | O=c1c2nccnc2nc(SCc2cc(=O)n3cc(Cl)ccc3n2)n1Cc1ccccc1 | 1.1
32 | O=C(NCCc1ccccc1)C1CC(c2c(F)cccc2Cl)=NO1 (stereo not shown) | 1.7
33 | COc1cccc2c1cc1c(=O)n(CC(=O)NCCC(C)C)nc(C)n12 | -3.47
34 | CC(C)N(C)C1CCN(S(=O)(=O)c2ccc(-c3cc(C(F)(F)F)no3)s2)CC1 | -1.05
35 | Cc1nn(-c2ccccc2F)c2c1C(=O)CC(c1ccccc1)C2 (stereo not shown) | 2.7
36 | CC1=C(C(=O)Nc2ccccc2C)C(c2cccc(F)c2)n2ncnc2N1 (stereo not shown) | -1.22
37 | CCOc1cc(C2C(C#N)=C(N)Oc3[nH]nc(C)c32)ccc1OCc1ccccc1 (stereo not shown) | -1.08
38 | CC(C(=O)N1CCN(Cc2ccc3c(c2)OCO3)CC1)n1sc2ccccc2c1=O (stereo not shown) | -7.17
39 | Cc1cc(=O)n(CC(=O)NCc2ccccc2)c2c1c(C)nn2-c1cccc(F)c1 | 3.14
40 | CC(C)OC(=O)C(N)c1ccccc1 (stereo not shown) | -0.582

Source: article PMC6919601, “Identification of Plasmodium dipeptidyl aminopeptidase allosteric inhibitors by high throughput screening” (PLoS ONE, 2019)
